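These data come from cells grown in 96-well plates and exposed to compound for 48 hours at five concentrations. GI50 marks 50% less growth.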 Activity calls are given as the source filed them. Cut-off read from the data, not from the text of the source: active = GI50 up to about 1.1 µM and inactive = higher.
tested on: NCI-H322M; assay: inhibition of tumour cell growth, NCI panel, 48 h

SMILES	GI50
COc1cc(OC)c(C/C=C/c2ccccc2)cc1O	inactive: 16 µM
CC(C)OP(=O)(OC(C)C)/C(=N/Nc1ccc([N+](=O)[O-])cc1)NCCO	inactive: > 100 µM
CCCCCCCCCCCCOP(=O)(O)OP(=O)(O)OCC1OC(n2cc(C)c(=O)[nH]c2=O)CC1O (stereo unspecified)	inactive: > 100 µM
COc1ccc(-c2ncnc(-c3ccc(OC)c(OC)c3)n2)cc1OC	inactive: > 100 µM
CCN(CC)CCCNc1nncc2c(C)c3[nH]c4ccccc4c3cc12	active: 0.416 µM
O=C1NC(Cc2ccccc2)C(=O)N2CCCC12 (stereo unspecified)	inactive: > 100 µM
COc1ccc(-c2cc(-c3ccc(Cl)cc3)n(C3OC(CO)C(O)C(O)C3O)c(=S)c2C#N)cc1 (stereo unspecified)	inactive: > 100 µM
Cc1ccc(S(=O)(=O)Nc2nc3ccccc3c(=O)n2C2CCCCC2)cc1	inactive: 69.5 µM
O=C1Sc2ccc(Br)cc2C(=O)Sc2ccccc21	inactive: 17.9 µM
Cc1[nH]c(-c2ccccc2)c(O)c1C(=O)OC12CC3CC(CC(C3)C1)C2	inactive: 15.8 µM
CCON1CC(C(=O)OC)=C(O)C1=O	inactive: > 100 µM
CN(C)c1ccc(/C=c2/c3ccccc3n3c2cc(/C=C/c2ccccc2)[n+]3C)cc1	active: 0.306 µM
COc1cc2ccc(C(=O)O)cc2cc1OC	inactive: > 100 µM
CCN(CC)CCCNc1ccc([N+](=O)[O-])c2nc3ccccc3c(N)c12	active: 0.423 µM
CSc1nc(-c2cc3c(c(SC)n2)CCCCC3)cc2c1CCCCC2	inactive: > 100 µM
O=C(Nc1ccc(Cl)cc1)Oc1ccc(C(=S)Nc2ccc(Br)cc2)cc1	inactive: 12.3 µM
Oc1ccc2ccccc2c1-c1nnc(CCCCCCCCc2nnc(-c3c(O)ccc4ccccc34)o2)o1	inactive: 1.88 µM
O=C(CCC(=O)c1ccsc1)c1ccsc1	inactive: 56.8 µM
Cc1ccc(C2C(C(=O)C(C)(C)C)N2S(=O)(=O)c2ccc(C)cc2)cc1 (stereo unspecified)	inactive: 51.3 µM
CCc1ccc2nccc(NCCCN(C)C)c2c1[N+](=O)[O-]	inactive: > 100 µM
CC1OC(n2cc(Cl)c(=O)[nH]c2=O)C=C(OC(=O)c2ccccc2)C1=O (stereo unspecified)	inactive: > 100 µM
Cc1ccc2c(=O)[nH]sc2c1	inactive: 45.6 µM
COc1ccc(C(c2ccccc2C(=O)O)c2ccc(OC)c3ccccc23)c2ccccc12	inactive: 14.6 µM

SMILES	GI50
c1ccc(CN2CCC3(CC2)SSC2(CCN(Cc4ccccc4)CC2)S3)cc1	inactive: > 100 µM
CCOC(=O)C1=C(C)N(C2OC(COC(C)=O)C(OC(C)=O)C(OC(C)=O)C2OC(C)=O)C(=O)NC1c1ccccc1 (stereo unspecified)	inactive: > 100 µM
O=C(O)c1ccc(P(=O)(O)c2ccc(C(=O)O)cc2Br)c(Br)c1	inactive: > 100 µM
CC(C)=NNc1cnnc2ccc([N+](=O)[O-])cc12	inactive: > 100 µM
O=C(CSC1=NCCN1)c1ccccc1	inactive: > 100 µM
COc1cc(O)c2c(=O)c(O)c(-c3ccc(O)c(O)c3)oc2c1 [RHAMNETIN]	inactive: 8.85 µM
CCOC(=O)C1=C(Nc2ccc(Br)cc2)OC/C1=N\NC(=O)c1ccccc1O	inactive: 24.9 µM
Cc1oc2c(c1C)S(=O)(=O)C(C#N)C(c1ccccc1)N2 (stereo unspecified)	inactive: 97.7 µM
COc1ccc(C2C(Cl)C(=O)N2NC(=O)Cc2ccccc2)cc1 (stereo unspecified)	inactive: > 100 µM
Cc1cc(O)c(O)c(Oc2cc(C)cc(O)c2O)c1	inactive: 22.5 µM
CC1(C)N=c2c(ncn2N)=C(C(N)=O)N1	inactive: > 100 µM
COc1ccc(C(=O)Nc2ccc(O)c(=O)cc2)cc1	inactive: > 100 µM
CCCc1n[nH]c(=O)n1N1C(=O)C=CC1=O	inactive: > 100 µM
CCOc1cc(/C=N\N(C)C)cc(/C=N\N(C)C)c1O	inactive: 64.7 µM
CSc1nc(-c2ccccc2)nc(C(C#N)C#N)n1	inactive: > 100 µM
Cc1cn([C@H]2C[C@@H]3[C@@H](COC(CCl)N3O)O2)c(=O)[nH]c1=O (stereo partly specified)	inactive: > 100 µM
CO/C=C(/C(=O)OC)c1ccccc1[C@@H]1CC1c1cccc(F)c1 (stereo partly specified)	inactive: 37.2 µM
O=C1C(Cl)=C(Cl)C(=O)N1c1cccc(C(F)(F)F)c1	inactive: > 100 µM
COC(=O)C1=C(O)c2cc3c(cc2[C@H](c2cc(OC)c(OC)c(OC)c2)C1C(=O)OC)OCO3 (stereo partly specified)	inactive: > 100 µM
Cc1nc2cc(/N=N/c3c(O)ccc4ccccc34)ccc2[nH]1	inactive: > 100 µM
CSc1nc(C)c2c(n1)N(c1ccc(Cl)cc1)CC2	inactive: > 100 µM
O=C1Cc2cn[nH]c2-c2ccccc2N1	inactive: > 86.9 µM
O=C1CC(n2cccc2)c2cc(Br)sc21 (stereo unspecified)	inactive: > 100 µM

SMILES	GI50
Cc1cccc(C)c1NC(=O)C(=O)CC(=O)/C=C/c1ccccc1	inactive: > 100 µM
O=C(CCl)NNC1=Nc2ccc(Cl)cc2SC1	inactive: 5.47 µM
CNCCN[C@@H]1c2cc3c(cc2[C@@H](c2cc(OC)c(O)c(OC)c2)[C@H]2C(=O)OC[C@@H]21)OCO3	inactive: 1.75 µM
COC(=O)[C@@H]1[C@H](OC(C)=O)CCC2[C@@]3(C[C@@H](c4ccoc4)O[C@@H]3OC)[C@H](C)CC[C@]21C(=O)OC (stereo partly specified)	inactive: > 25 µM
CCCCC(=C=C(C)CO)C1CCCN1C(=O)OC(C)(C)C (stereo unspecified)	inactive: 23.4 µM
CC(C)N(C(=O)C12C3C4C5C3C1(C(=O)N(C(C)C)C(C)C)C5(C#N)C42)C(C)C (stereo unspecified)	inactive: > 100 µM
C[C@@H]1[C@@H]2[C@@H](C=C3C4CCC5Cc6nc7c(nc6C[C@@]5(C)C4C[C@H](O)[C@]32CO)CC2CCC3C4=C[C@H]5O[C@@]6(OC(C)(CO)C[C@@H]6O)[C@H](C)[C@@]5(O)[C@]4(C)[C@@H](O)CC3[C@]2(C)C7)O[C@]12CCC(C)(C)O2 (stereo partly specified)	active: 0.608 µM
CC(C)(C)C(=O)Nc1cccc(-c2ccc[nH]2)n1	inactive: > 100 µM
CSc1ccc(NC(=S)NN(C)C)cc1	inactive: > 10 µM
O=C(C=P(c1ccccc1)(c1ccccc1)c1ccccc1)c1ccc(-c2cccs2)cc1	inactive: 4.33 µM
COc1ccc(N2C(=O)C3ON(C(C(N)=O)c4ccccc4)C(c4cc5ccccc5c5ccccc45)C3C2=O)cc1 (stereo unspecified)	inactive: > 50 µM
CC1=C[C@@H](C)C[C@]2(C)CC[C@H](O2)[C@]23CC[C@](C)(C[C@H](O2)[C@@H]2O[C@@](C)(CC2=O)[C@@H](O)[C@H]2CC[C@@]4(CCC[C@@H](O4)[C@H](C)C(=O)O[C@H]4C[C@H]([C@]5(O)OCC[C@H](C)[C@@H]5O)O[C@H]4C=C1)O2)O3	active: 0.164 µM
CC(C)(C)c1cc(C2COC(c3cc(C(C)(C)C)c(O)c(C(C)(C)C)c3)CO2)cc(C(C)(C)C)c1O (stereo unspecified)	inactive: > 100 µM
O=S(=O)(/N=C(\NO)Nc1ccc(Cl)cc1)c1cccc2nsnc12	inactive: 29.2 µM
O=C(O)C(CS)Nc1c2ccccc2[n+]([O-])c2ccccc12 (stereo unspecified)	inactive: > 100 µM
Cc1ccc(S(=O)(=O)NC(=O)NCc2ccc(S(N)(=O)=O)cc2)cc1	inactive: > 100 µM
CC(C)(C)C1=CC(=C2C=Cc3ccccc3O2)C=C(C(C)(C)C)C1=O	inactive: 6.08 µM
c1ccc(CCN(Cc2nc3ccccc3[nH]2)Cc2nc3ccccc3[nH]2)cc1	inactive: 16.2 µM
Cc1ccc(C(=O)N2CCN(C(=O)c3ccc(C)cc3)c3ccccc32)cc1	inactive: 9.48 µM
COc1ccc(OC)c2sc(N3C(=O)/C(=C/c4ccc(SC)cc4)N=C3c3ccccc3)nc12	inactive: 45.1 µM
CC(C)(C)c1ccc(CN2CCN(C(c3ccccc3)c3ccc(Cl)cc3)CC2)cc1 (stereo unspecified)	inactive: > 100 µM
CC(C)C(N)C(=O)NC(CCC(=O)NCCCCC(N)C(=O)NCCCNc1ccc([N+](=O)[O-])c2[nH]c3ccccc3c(=O)c12)C(N)=O (stereo unspecified)	inactive: 63.2 µM
O=C(O)/C(=C\c1ccncc1)c1cccc2ccccc12	inactive: > 100 µM

SMILES	GI50
CC1(C)OC[C@@H](C[C@H](O)COCc2ccccc2)O1	inactive: > 100 µM
COC(=O)C(=O)C(C(=O)C(=O)Nc1ccccc1C(N)=O)c1nc2ccc(C(=O)c3ccccc3)cc2nc1O (stereo unspecified)	inactive: > 100 µM
CNC(=O)OCCN1c2ccccc2Sc2ccccc21	inactive: > 100 µM
COc1ccc(C2SC(=N)Nc3c2c(C)nn3C(=O)Cc2ccccc2)cc1 (stereo unspecified)	inactive: > 100 µM
COc1ccc(CC2(O)C3CC4CCC2C4C3)cc1 (stereo unspecified)	inactive: > 100 µM
COCC1N=C(c2ccc(OC)c(OCc3ccccc3)c2OC)O[C@H]1c1ccccc1 (stereo partly specified)	inactive: 18.9 µM
CCOC(=O)/C(C(=O)c1ccc[nH]1)=C1/CCCN1C	inactive: > 100 µM
COc1cc2c(cc1OC)C(=O)Cc1ccc(OC)c(OC)c1CN(C)CC2	inactive: 46.3 µM
N=C(N)NCCCC(NC(=O)c1cccc2c(=O)c3ccccc3[nH]c12)C(=O)O (stereo unspecified)	inactive: > 100 µM
COc1cc(OC)c2nc(C)c3c(c2c1)SCC3	inactive: 23.6 µM
CC(C)OP(=O)(OC(C)C)/C(=N/Nc1ccc([N+](=O)[O-])cc1)NN	inactive: > 100 µM
COc1cc2c3c(n(C)c(=O)c2cc1OC)-c1cc2c(cc1/C3=C\CCCI)OCO2	inactive: > 4.65 µM
COc1ccc(OC)c(CNc2ccc(C(=O)O)cc2)c1	inactive: > 100 µM
COc1ccc(CC(=O)NCCc2ccc(OC)c(OC)c2OC)cc1	inactive: > 100 µM
COC(=O)c1csc(-c2csc(CCNC(=O)OC(C)(C)C)n2)n1	inactive: > 100 µM
N/C(=N/O)c1cn(C2OC(CO)C(O)C2O)c2ncnc(NO)c12 (stereo unspecified)	active: 0.303 µM
O=c1[nH]c(=O)n(C2CC(O)C(CO)O2)cc1C(OCC(F)(F)F)OCC(F)(F)F (stereo unspecified)	inactive: > 100 µM
COC(=O)C1=C(CCC[C@H](C)O[Si](C)(C)C(C)(C)C)NC(=O)N2[C@@H](CCO)CC[C@H]12	inactive: 17.3 µM
c1ccc2cc(CNCCCCNCCCNCc3ccc4ccccc4c3)ccc2c1	inactive: 1.49 µM
CCOC(=O)c1ccc(C(=O)/C(C#N)=C2\CCCN2)n1C	inactive: > 100 µM
CCOP(=O)(OCC)C(=C1C=C(C(C)(C)C)C(=O)C(C(C)(C)C)=C1)P(=O)(OCC)OCC	inactive: > 10 µM
COc1ccc(/C=C/C(=O)Oc2cc(O)cc(O)c2)cc1	inactive: > 100 µM
